These results are taken from the supplement of paper PMC10441789.

Some of the results follow. Antibody binding of pooled human sera (four to six donors per pool; dilution not stated) to peptides of the Trypanosoma cruzi antigen TSSA on microarrays. Quantile-normalised fluorescence in arbitrary units, mean of duplicate arrays; higher = more binding. No active / inactive call. The uninfected pools are read here as the healthy donors of the same country. The strongest signals lie near the top of the scale (about 60,000).

The test system of the first test is pooled sera of uninfected people, Argentina. The experiment in a line: antibody binding signal (normalised fluorescence) (arbitrary fluorescence units); higher = stronger serum antibody binding to peptide. The method, then:
(§1)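 Microarray of 15-residue peptides over residues 30-55 of Trypanosoma cruzi TSSAII, each with 1 to 10 substitutions at naturally variable positions, probed with one serum pool per country.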
In the case of DNKTATGEAPSQPGA, the antibody binding signal turned out to be 203.

Sequence TDKKAAAGETPSPPG yielded an antibody binding signal of 167.

In turn, PPSGTEKKAAAGETP yielded an antibody binding signal of 855.

For the sequence TISTPPSGTEKKAAT, the antibody binding signal worked out at 929.

Regarding SGTDNKPATGEAPSQ, the antibody binding signal is 725.

For SGKDNKAATGEAPSQ, the antibody binding signal came out at 299.

With GKDKKTAAGEAPSQS, the antibody binding signal was determined as 168.

KKTATGEAPSPSGAS returned an antibody binding signal of 337.

In turn, ISTPPSGTENKAAAG returned an antibody binding signal of 3420.

In turn, GTEKKPATGEAPSPS yielded an antibody binding signal of 904.

ENKTATGETPSPPGA yielded an antibody binding signal of 118.

KDKKAATGEAPSQSG returned an antibody binding signal of 229.

SGTDNKAAAGGTPSP registered an antibody binding signal of 157.

With TDNKAAAGETPSQPG, the antibody binding signal is 90.7.

Regarding PPSGTENKAATGGAP, the antibody binding signal stood at 2470.

Sequence GKDNKAAAGEAPSQS showed an antibody binding signal of 232.

On to PPSGTDNKPATGGAP, for which the antibody binding signal came out at 1790.

On to PSGKEKKAAAGGTPS, for which the antibody binding signal worked out at 259.

For the sequence TDKKTAAGEAPSQSG, the antibody binding signal turned out to be 175.

Regarding KAAAGETPSQPGASS, the antibody binding signal was 156.

Turning to TDKKAAAGGTPSQPG, the antibody binding signal amounted to 222.

NKTATGEAPSPPGAS registered an antibody binding signal of 524.

Turning to ENKPAAGETPSQPGA, the antibody binding signal was determined as 168.

PSGKDNKTATGGAPS returned an antibody binding signal of 297.

For KKAAAGGAPSQSGAS, the antibody binding signal was found to be 209.

In turn, DNKAAAGGTPSPPGA gave an antibody binding signal of 179.

As to TEKKAAAGGTPSQSG, the antibody binding signal was 181.

Sequence TEKKPATGGAPSPSG gave an antibody binding signal of 501.

KPAAGGTPSQSGASS: the antibody binding signal came to 275.

In the case of GKEKKTATGGAPSQP, the antibody binding signal came to 241.

With ISTPPSGKDNKAAAG, the antibody binding signal stood at 336.

Consider GKENKAAAGEAPSPP, for which the antibody binding signal came to 483.

KAAAGETPSPPGASS came in with an antibody binding signal of 154.

The sequence KEKKTAAGEAPSPSG registered an antibody binding signal of 177.

EKKTATGETPSQSGA displayed an antibody binding signal of 304.

The sequence TEKKTAAGGAPSQSG showed an antibody binding signal of 195.

In turn, DNKTAAGEAPSPPGA registered an antibody binding signal of 125.

As for DKKPAAGETPSQPGA, the antibody binding signal is 141.

GKDKKTATGGTPSPS: the antibody binding signal stood at 182.

In turn, GKDKKPATGETPSPP yielded an antibody binding signal of 162.

The next test deals with pooled sera of uninfected people, Bolivia. Described as above. The method, then: as §1
DNKTATGEAPSQPGA came in with an antibody binding signal of 117.

In the case of TDKKAAAGETPSPPG, the antibody binding signal came to 193.

PPSGTEKKAAAGETP displayed an antibody binding signal of 435.

TISTPPSGTEKKAAT: the antibody binding signal stood at 312.

For the sequence SGTDNKPATGEAPSQ, the antibody binding signal came to 560.

The sequence SGKDNKAATGEAPSQ showed an antibody binding signal of 270.

GKDKKTAAGEAPSQS had an antibody binding signal of 101.

On to KKTATGEAPSPSGAS, for which the antibody binding signal was determined as 259.

On to ISTPPSGTENKAAAG, for which the antibody binding signal worked out at 699.

GTEKKPATGEAPSPS yielded an antibody binding signal of 1720.

ENKTATGETPSPPGA: the antibody binding signal worked out at 191.

In the case of KDKKAATGEAPSQSG, the antibody binding signal was determined as 81.7.

SGTDNKAAAGGTPSP gave an antibody binding signal of 693.

For TDNKAAAGETPSQPG, the antibody binding signal was determined as 654.

PPSGTENKAATGGAP: the antibody binding signal stood at 933.

The sequence GKDNKAAAGEAPSQS gave an antibody binding signal of 327.

PPSGTDNKPATGGAP came in with an antibody binding signal of 1650.

In turn, PSGKEKKAAAGGTPS yielded an antibody binding signal of 104.

Regarding TDKKTAAGEAPSQSG, the antibody binding signal amounted to 355.

Take KAAAGETPSQPGASS: the antibody binding signal was 1270.

Sequence TDKKAAAGGTPSQPG yielded an antibody binding signal of 103.

The sequence NKTATGEAPSPPGAS displayed an antibody binding signal of 1060.

Sequence ENKPAAGETPSQPGA returned an antibody binding signal of 1300.

Sequence PSGKDNKTATGGAPS displayed an antibody binding signal of 153.

KKAAAGGAPSQSGAS: the antibody binding signal amounted to 106.

Sequence DNKAAAGGTPSPPGA came in with an antibody binding signal of 407.

In the case of TEKKAAAGGTPSQSG, the antibody binding signal turned out to be 110.

With TEKKPATGGAPSPSG, the antibody binding signal worked out at 1140.

For the sequence KPAAGGTPSQSGASS, the antibody binding signal stood at 196.

In turn, GKEKKTATGGAPSQP gave an antibody binding signal of 82.6.

Sequence ISTPPSGKDNKAAAG gave an antibody binding signal of 286.

Sequence GKENKAAAGEAPSPP yielded an antibody binding signal of 107.

KAAAGETPSPPGASS came in with an antibody binding signal of 229.

Turning to KEKKTAAGEAPSPSG, the antibody binding signal stood at 90.1.

Sequence EKKTATGETPSQSGA had an antibody binding signal of 744.

Turning to TEKKTAAGGAPSQSG, the antibody binding signal was 182.

Sequence DNKTAAGEAPSPPGA returned an antibody binding signal of 278.

DKKPAAGETPSQPGA came in with an antibody binding signal of 477.

Turning to GKDKKTATGGTPSPS, the antibody binding signal is 93.1.

Sequence GKDKKPATGETPSPP registered an antibody binding signal of 150.
